Measured values published in PubChem BioAssay AID1345082 (National Center for Advancing Translational Sciences (NCATS), 2018).
Where “and” joins values, the source holds several entries; their conditions need not be identical. Identical values can stand only once. Out of some 94,000 compounds screened, about 4,000 (4.3%) were called active. The inconclusive results got no clear call from the source; some entries with a clear call stand among them for comparison. The call rests on the fitted dose curve; in most records, active means well fitted inhibition curve with a large enough effect; inconclusive means small, poorly fitted or top-dose-only effect; inactive means no such curve, though single readings can be large or run the other way. A potency beside an inconclusive call is a rough fit, not a confirmed value.

Test: Cytotoxic Profiling in NIH 3T3 Cell Line of Diverse Libraries Using Quantitative High-Throughput Screening; further: nearly all actives have a fitted effect of over 55% in size
Details: NIH 3T3 viability, CellTiter-Glo ATP luminescence, 48-72 h; activity change, negative = cytotoxicity: at 96.7 µM (top of the series); series mostly up to 96.7 µM
Procedure, shortened: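 NIH 3T3 cells at 400 cells/well received 23 nL of compound by pintool and were incubated 48 or 72 h at 37 °C. Viability was read as ATP-coupled CellTiter-Glo luminescence.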
On the % scale 0 is the no-effect control and ±100 the full control effect; potency means the concentration at half of the fitted maximal effect; tags describe the fitted curve by direction and shape.

SMILES	activity change, negative = cytotoxicity	Potency
O=C1c2cnc(-c3cc(F)cc(F)c3)nc2OCCN1Cc1ccc(F)cc1F	inactive: -22.2% [at 138 µM]	–
O=[S+]([O-])(c1cccc(C(F)(F)F)c1)N1CCC2(CCN(Cc3cccs3)c3ccccc3O2)CC1	–	inactive and inconclusive: 44.7 µM [inhibitor, partial curve, poor fit]
CCN(CC)C(=O)C[C@@H]1CCNC[C@@H]1Cc1cc(-c2ccccc2)on1	–	inconclusive: 100 µM [inhibitor, partial curve, poor fit]
COc1ccc(/C=C/CN2CCC(CCC(=O)Nc3ccccc3Cl)CC2)cc1	–	active: 79.4 µM
O=C(c1ccsc1)N1CCC2(CC1)CC(OCC1CC1)CCO2 (stereo not drawn)	inactive: -7.62%	–
Cc1cc(C)c2c(C(=O)N3CCN(C)C4(CCN(C)CC4)C3)cc(C)nc2c1	inactive: -4.69%	–
CC1(C)C(=O)N(Cc2ccccc2F)[C@H]2CN(Cc3cccnc3)C[C@@H]2[S+]1(=O)[O-]	–	inconclusive: 89.1 µM [inhibitor, partial curve, poor fit]
O=C(Nc1ccc(F)cc1)N[C@H]1[C@H](O)[C@@H](Oc2ccccc2)[C@@H]2OC[C@H]1O2	–	inconclusive: 79.4 µM [inhibitor, partial curve]
O=C(Cc1ccccc1)N1CCCC(c2nn(-c3ccc(Cl)cc3)c(=O)[nH]2)C1 (stereo not drawn)	–	inconclusive: 70.8 µM [inhibitor, single point]
CS(=O)(=O)NCCc1ccc(CC2CCN(C(=O)COc3ccc(F)cc3)CC2)cc1	–	inconclusive: 79.4 µM [inhibitor, partial curve, poor fit]
COCC(=O)N1CCC(C(=O)NCC2(c3ccccc3)CCCCC2)CC1	–	inconclusive: 79.4 µM [inhibitor, partial curve, poor fit]
COc1ccc(-c2noc(-c3cccn3CC(=O)Nc3cc(Cl)ccc3OC)n2)cc1F	–	inconclusive: 44.7 µM [inhibitor, partial curve, poor fit]
COc1cccc(CCC2CCCN(C3CCN(Cc4cccnc4)CC3)C2)c1 (stereo not drawn)	inactive: -26%	–
COCCNc1cc2c(cn1)CN(Cc1ccccc1)CCN2	–	inconclusive: 10 µM [inhibitor, full curve, poor fit]
Cc1ccc(-c2cn3c(n2)CO[C@@H](CNC(=O)NCc2ccccc2)C3)cc1	inactive: -16.7% [at 138 µM]	–
COc1ccc(CCNC(=O)c2c(C)noc2-c2ccccc2OC)cc1OC	inactive: -24.2%	–
COCCc1nc(-c2cnc(C3CC3)nc2)n(-c2ccc(F)cc2F)n1	–	active: 89.1 µM
CC(C)c1cccc(NC(=O)CCn2ccn3nc4c(c3c2=O)CCCC4)c1	–	inconclusive: 50.1 µM [inhibitor, partial curve, poor fit]
